Measurements published in PubChem BioAssay AID2100 (National Center for Advancing Translational Sciences (NCATS), 2009).
Values joined by “and” are separate entries in the source; they are usually repeats but may differ in a detail not shown here. Equal entries are not always repeated. The whole screen tested about 300,000 compounds, of which about 1,200 (0.4%) were called active. The inconclusive results got no clear call from the source; some entries with a clear call stand among them for comparison. Calls come from the whole dose curve; as a rule, active = well fitted inhibition curve with a large enough effect; inconclusive = small, poorly fitted or top-dose-only effect, or another doubt; inactive = no such curve, though single readings can be large or run the other way. Potencies beside an inconclusive call are fits to weak or partial responses and may not hold up.

target: Lysosomal alpha-glucosidase (Homo sapiens) (UniProt P10253); assay: qHTS Assay for Inhibitors and Activators of Human alpha-Glucosidase Cleavage of Glycogen; settings: recombinant GAA, glycogen substrate, Amplex Red glucose oxidase fluorescence; series mostly up to 76.4 µM
Procedure, shortened: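 Natural-substrate format: glycogen cleavage by 4 nM human enzyme, glucose read by Amplex Red coupling (Ex 573, Em 610 nm). Normalized to enzyme and no-enzyme controls.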
Potency is the fitted concentration of half-maximal effect.

Row | Structure (SMILES) | Potency
1 | C(=N\N1CCOCC1)/c1ccsc1 | inconclusive: 12.6 µM [inhibitor, partial curve]
2 | Cc1cccc(NC(=S)NNC(=S)NC2CCCCC2)c1C | inconclusive: 39.5 µM [inhibitor, single point]
3 | c1ccc2c(c1)NCCS2 | inconclusive: 6.26 µM [inhibitor, partial curve]
4 | CC(=O)Cn1nnc(-c2ccc(C(F)(F)F)cc2)n1 | inactive
5 | CCOC(=O)c1c(O)c(O)c(C(=O)OCC)n1-c1ccccc1 | inconclusive: 35.5 µM [inhibitor, partial curve]
6 | COc1ccc(Br)cc1/C=N/N1C(=O)CSC1=S | inactive
7 | NNC(=O)CCc1c[nH]c2ccccc12 | inconclusive: 39.5 µM [inhibitor, partial curve]
8 | COc1ccc(N2C(=O)CC(NNC(=O)c3ccc(Br)s3)C2=O)cc1 (centres undefined) | inconclusive: 50.1 µM [inhibitor, single point]
9 | C=CCNC(=S)NCCCCC1NC(=S)N(CC=C)C1=O (centres undefined) | inconclusive: 50.1 µM [inhibitor, single point]
10 | CCCn1c(SCC(O)c2cccc(OC)c2)nc2ccccc21 (centres undefined) | inactive
11 | COc1cc(NCCCC(C)N)c2ncccc2c1 (centres undefined) | inconclusive: 31.6 µM [inhibitor, single point]
12 | O=C(NNS(=O)(=O)c1ccc(F)cc1)c1cc(Cl)ccc1O | inconclusive: 35.5 µM [inhibitor, single point]
13 | N#C/C(C(=S)Nc1ccccc1)=C1/NN=C(N2CCOCC2)N1c1ccccc1 | inconclusive: 3.14 µM [inhibitor, partial curve]
14 | CCN(CC)C(=O)CSc1nnc2sc3ccccc3n12 | inactive
15 | S=c1[nH]c2cc(-c3ccccc3)ccc2o1 | inconclusive: 50.1 µM [inhibitor, single point]
16 | CC1(C)Oc2ccc3ccc(=O)oc3c2/C(=C/NNC(N)=O)C1=O | inconclusive: 44.7 µM [inhibitor, partial curve]
17 | O=C(Cn1c(=O)oc2cc(S(=O)(=O)N3CCCC3)ccc21)Nc1ccc(C(F)(F)F)cc1 | inactive
18 | Nc1cc([N+](=O)[O-])ccc1O | inconclusive: 2.82 µM [inhibitor, partial curve]
19 | O=C(O)Cc1ccc2ocnc2c1 | active: 22.4 µM
20 | N#CC(C(=S)Nc1ccccc1)c1nc2ccccc2[nH]1 (centres undefined) | inconclusive: 7.94 µM [inhibitor, partial curve]
21 | N#C/C(=C\Nc1ccc2cn[nH]c2c1)c1nc(-c2ccc(Cl)cc2)cs1 | inactive
22 | COC1(NC(=O)c2ccccc2)C(C)=CC(=O)C=C1C | inconclusive: 10 µM [inhibitor, full curve, poor fit]
23 | CCN1CCCC1CN(Cc1cc2cc(C)ccc2[nH]c1=O)C(=O)Nc1ccccc1OC (centres undefined) | inconclusive: 39.8 µM [activator, single point]

Row | Structure (SMILES) | Potency
24 | Cc1cc2nc3c(=O)[nH]c(=O)[nH]c3nc2c([N+](=O)[O-])c1N | inactive
25 | Cc1ccc2nc(-c3ccncc3)c(Nc3ccccc3C)n2c1 | inconclusive: 7.94 µM [inhibitor, full curve]
26 | c1ccc(COc2ccc(CN3CCN(c4ccccn4)CC3)cc2)cc1 | inactive
27 | Oc1ccccc1N1CCN(C(=S)Nc2ccc(SC(F)F)cc2)CC1 | inconclusive: 5.01 µM [inhibitor, full curve]
28 | CCc1ccc(NC(=S)Nc2cc(OC)c(NC(=O)C(C)C)cc2OC)cc1 | active: 12.5 µM
29 | CCCn1c(N)c(N2CCCCC2)c(=O)n(CC(=O)Nc2ccccc2)c1=O | inconclusive: 7.03 µM [inhibitor, partial curve]
30 | Cc1ccc(-c2nc3sccn3c2Nc2ccccc2C)cc1 | inconclusive: 28.2 µM [inhibitor, single point]
31 | COc1ccc(/C=N/N2C(=O)CSC2=S)cc1 | inconclusive: 15.7 µM [inhibitor, partial curve]
32 | Cc1ccc(-c2nnc(Nc3ccc(O)cc3)c3ccccc23)cc1S(=O)(=O)NCc1nc2ccccc2[nH]1 | inconclusive: 11.2 µM [inhibitor, partial curve]
33 | O=C(CNc1ccccc1)NN=C1CCCC1 | inconclusive: 7.94 µM [inhibitor, partial curve]
34 | CCCC(O)(CCC)C(=O)NNc1ccccc1 | inconclusive: 12.6 µM [inhibitor, partial curve]
35 | CCOC(=O)c1c(C)sc(-c2c(-c3ccc4c(c3)OCCO4)[nH]c3c2c(=O)[nH]c(=O)n3C)c1O | inconclusive: 14.1 µM [inhibitor, partial curve]
36 | CCn1c(=Nc2ccc(N3CCOCC3)cc2)ccc2ccccc21 | inactive
37 | O=c1cc(CO)oc(C(Nc2ccccn2)c2ccsc2)c1O (centres undefined) | inconclusive: 39.8 µM [inhibitor, partial curve]
38 | N#C/C(=C\c1ccc(N2CCOCC2)o1)C(=O)Nc1ccc(O)cc1 | inconclusive: 31.6 µM [inhibitor, partial curve]
39 | Cc1ccc(NC(=S)NNC(C)(C)C)cc1 | inconclusive: 35.2 µM [inhibitor, partial curve]
40 | COc1cc2[nH]c(C(=O)NN)c(N)c2cc1OC | inconclusive: 17.8 µM [inhibitor, partial curve]
41 | COc1cc(C2C3C(=O)N(Cc4ccccc4)C(=O)C3ON2c2ccccc2)cc(OC)c1O (centres undefined) | inconclusive: 12.6 µM [inhibitor, partial curve]
42 | CCCN1CCN(CCCNC(=O)c2ccc3c(c2)sc2nc(-c4ccc(C)cc4)cn23)CC1 | inactive
43 | COc1ccc(NC(=S)N2CCCCCC2)cc1OC | inconclusive: 28.2 µM [inhibitor, partial curve]
44 | CC1S/C(=N/N=C2CCC(C(C)(C)C)CC2)NC1=O (centres undefined) | inconclusive: 14.1 µM [inhibitor, partial curve]
45 | Cc1ccc(-c2sc(C(=O)NN)c(C)c2C#N)cc1 | inconclusive: 39.8 µM [inhibitor, single point]
46 | O=C(NC1CCCC1)C(c1ccccn1)N(C(=O)c1csnn1)C1CCCCC1 (centres undefined) | inconclusive: 35.5 µM [inhibitor, single point]

Row | Structure (SMILES) | Potency
47 | O=C(Cc1cc(=O)[nH][nH]1)N/N=C/C=C/c1ccccc1 | inconclusive: 24.9 µM [inhibitor, single point] and inconclusive: 31.6 µM [inhibitor, partial curve]
48 | CCOC(=O)C1=C(C)Nc2ccc(C)cc2S1 | inconclusive: 28.2 µM [inhibitor, single point]
49 | Cc1ccc(C)c(S(=O)(=O)NCCOC(=O)Nc2sc(=S)n(C)c2C)c1 | inconclusive: 39.8 µM [inhibitor, single point]
50 | Oc1ccc(CN2CCc3ccccc3C2)c2cccnc12 | inconclusive: 31.4 µM [inhibitor, single point]
51 | Cc1cc(C)c2c(-n3cccc3)c(C(=O)NCCCN3CCCCC3)sc2n1 | inconclusive: 50.1 µM [inhibitor, partial curve]
52 | COc1ccc(S(=O)(=O)Nc2cc(S(=O)(=O)c3ccccc3)c(O)cc2C)cc1 | inactive
53 | COc1cc(-c2nc(-c3ccccc3)c(-c3cccs3)[nH]2)cc(OC)c1O | inconclusive: 25.1 µM [inhibitor, single point]
54 | O=C(NNc1c2ccccc2nc2ccccc12)C(O)c1ccccc1 (centres undefined) | inconclusive: 35.5 µM [inhibitor, partial curve]
55 | COc1cc(C2c3sc(=O)[nH]c3SC3C(=O)N(c4ccc(Br)cc4)C(=O)C32)ccc1O (centres undefined) | inconclusive: 10 µM [inhibitor, full curve]
56 | Cc1ccc(N=Cc2ccc[nH]2)c(O)c1 | inconclusive: 44.7 µM [inhibitor, partial curve]
57 | COc1ccc(/C=N\NC(=O)c2cc(O)c(O)c(O)c2)cc1COc1ccc(C(=O)OCC(C)C)cc1 | inconclusive: 6.31 µM [inhibitor, single point]
58 | CCCCC(=O)Nc1cc(N(C)C)nc2ccccc12 | inconclusive: 9.92 µM [inhibitor, partial curve, poor fit]
59 | CCCn1c(N)c(N2CCCCC2)c(=O)n(CC(=O)Nc2ccccc2C)c1=O | inconclusive: 14 µM [inhibitor, partial curve]
60 | Cc1ccc2c(c1)N(C(=O)N1CCC(C(=O)NCCc3ccc(Cl)cc3)CC1)CC(C)O2 (centres undefined) | inactive
61 | CCOc1cccc2c1N[C@@H](c1ccc(C(=O)O)cc1)[C@H]1CC=C[C@@H]21 | inconclusive: 50.1 µM [inhibitor, single point]
62 | CC1(C)CC(=O)C=C(NCCc2ccccc2)C1 | inactive
63 | Cc1nc2sccn2c(=O)c1S(=O)(=O)Nc1cc(Cl)ccc1O | inconclusive: 14.1 µM [inhibitor, partial curve]
64 | CC1Cc2ccccc2N1c1ncnc2c1nnn2Cc1ccccc1Cl (centres undefined) | inactive
65 | COC(=O)C1=C(C)N(C)C(C)=C(C(=O)OC)C1c1ccccc1C | inconclusive: 35.5 µM [inhibitor, single point]
66 | O=C(COc1ccccc1-c1nc(-c2ccccc2)no1)Nc1cccc([N+](=O)[O-])c1 | inconclusive: 12.6 µM [inhibitor, full curve, poor fit]
67 | C(=Nc1cccc2c(N=Cc3ccco3)cccc12)c1ccco1 | active: 14 µM
68 | Cc1ccccc1Nc1nnc(SCC(=O)c2cc3ccccc3o2)s1 | inconclusive: 12.6 µM [inhibitor, partial curve]
69 | CCc1ccc(/C=N/NC(=O)c2ccccn2)cc1 | inconclusive: 31.6 µM [inhibitor, partial curve]
